Results from patent US9046519 (RSR, dated 2015).
Like-named read-outs stand apart in the source and are kept apart here. Values belong to the binder of their own block, whether it stands above or below them.

Columns and labels:
Assay in all cases: Scatchard, 125I-ligand, solubilised TSHR on tubes
[1] = target: T1, porcine TSH (RSR Ltd, 70 units per mg) (porcine, UniProt P01219 in part; P01224 in part)
Method: (§1) Firstly, dilution profiles of each TSHR preparation were set up. In these experiments, plastic tubes (Maxisorp Star; NUNC) were coated overnight at 4° C. with 200 µL of a mouse monoclonal antibody to the TSHR C-terminus at 10 µg/mL in coating buffer (0.1 mmol/L Na_2CO$_3$ pH 9.2). After washing and post-coating (10 mg/mL of BSA in water) the tubes were washed with assay buffer (10 mmol/L Tris-HCl pH 7.8, 50 mmol/L NaCl and 1 mg/mL BSA) containing 0.1% Triton X-100. In the next step, 200 µL of solubilized wild type or mutated TSHR preparations were added to the tubes and incubated overnight at 4 C. […] After aspiration of the solutions, the tubes were washed and counted in a gamma counter.

[2] = target: T1, porcine TSH (RSR Ltd, 70 units per mg); remark: listed apart in the source
[3] = target: T1, porcine TSH (RSR Ltd, 70 units per mg); remark: listed apart in the source
Method: as §1

B1: TSHR Tyr82 to Ala (receptor)
chain: not shown
notes: whole, on cells; as m1
Ka [1]: 4e+09 M⁻¹

B2: TSHR Arg80 to Asp (receptor)
chain: not shown
notes: whole, on cells; as m1
Ka [1]: 2.8e+09 M⁻¹

B6: TSHR Arg255 to Ala and Tyr185 to Ala (receptor)
chain: not shown
notes: whole, on cells; as m1
binding result [2]: no binding

B7: TSHR Tyr185 to Ala (receptor)
chain: not shown
notes: whole, on cells; as m1
Ka [1]: 3.4e+09 M⁻¹

B11: TSHR Trp258 to Ala (receptor)
chain: not shown
notes: whole, on cells; as m1; also called Trp258 mutated to Ala
binding result [3]: no binding

B12: TSHR Phe130 to Ala (receptor)
chain: not shown
notes: whole, on cells; as m1
Ka [1]: 2.4e+09 M⁻¹

B13: TSHR Arg80 to Ala (receptor)
chain: not shown
notes: whole, on cells; as m1
Ka [1]: 4.2e+09 M⁻¹

B14: TSHR Lys58 to Ala (receptor)
chain: not shown
notes: whole, on cells; as m1
Ka [1]: 5.9e+09 M⁻¹

B15: TSHR Glu178 to Ala and Asp203 to Ala (receptor)
chain: not shown
notes: whole, on cells; as m1
binding result [2]: no binding

B16: TSHR Arg255 to Ala (receptor)
chain: not shown
notes: whole, on cells; as m1; also called Arg255 mutated to Ala
Ka [3]: 1.9e+09 M⁻¹
Ka [1]: 2.3e+09 M⁻¹

B17: TSHR Tyr279 to Ala (receptor)
chain: not shown
notes: whole, on cells; as m1
binding result [1]: no binding

B19: TSHR Glu251 to Ala (receptor)
chain: not shown
notes: whole, on cells; as m1
Ka [1]: 2e+09 M⁻¹

B20: TSHR Thr257 to Ala (receptor)
chain: not shown
notes: whole, on cells; as m1
binding result [1]: no binding

B21: TSHR Asp203 to Ala (receptor)
chain: not shown
notes: whole, on cells; as m1; also called Asp203 mutated to Ala
Ka [3]: 1.9e+09 M⁻¹
Ka [1]: 2.2e+09 M⁻¹

B22: TSHR Tyr185 to Ala and Lys183 to Ala (receptor)
chain: not shown
notes: whole, on cells; as m1
Ka [2]: 1.39e+10 M⁻¹

B23: TSHR Asp232 to Ala and Arg255 to Ala (receptor)
chain: not shown
notes: whole, on cells; as m1
binding result [2]: no binding

B24: TSHR Asp232 to Ala (receptor)
chain: not shown
notes: whole, on cells; as m1; also called Asp232 mutated to Ala
binding result [3]: no binding

B27: TSHR Arg255 to Ala and Lys183 to Ala (receptor)
chain: not shown
notes: whole, on cells; as m1
binding result [2]: no binding

B29: TSHR Tyr206 to Ala (receptor)
chain: not shown
notes: whole, on cells; as m1
binding result [1]: no binding

B30: TSHR Glu107 to Arg (receptor)
chain: not shown
notes: whole, on cells; as m1
binding result [1]: no binding

B31: TSHR Asp43 to Ala (receptor)
chain: not shown
notes: whole, on cells; as m1; also called Asp43 mutated to Ala
Ka [3]: 3.1e+09 M⁻¹
Ka [1]: 3.4e+09 M⁻¹

B33: TSHR Arg274 to Ala (receptor)
chain: not shown
notes: whole, on cells; as m1
binding result [1]: no binding

B34: TSHR Lys129 to Asp (receptor)
chain: not shown
notes: whole, on cells; as m1
binding result [1]: no binding

B35: TSHR Ser281 to Ala (receptor)
chain: not shown
notes: whole, on cells; as m1; also called Ser281 mutated to Ala
Ka [3]: 3.4e+09 M⁻¹
Ka [1]: 3.4e+09 M⁻¹

B36: TSHR Asp160 to Ala (receptor)
chain: not shown
notes: whole, on cells; as m1
binding result [1]: no binding

B39: TSHR Lys183 to Asp (receptor)
chain: not shown
notes: whole, on cells; as m1
binding result [1]: no binding

B40: TSHR Asp232 to Arg and Arg255 to Asp (receptor)
chain: not shown
notes: whole, on cells; as m1
binding result [2]: no binding

B41: TSHR Lys250 to Ala (receptor)
chain: not shown
notes: whole, on cells; as m1
binding result [1]: no binding

B42: TSHR Trp258 to Ala and Lys183 to Ala (receptor)
chain: not shown
notes: whole, on cells; as m1
binding result [2]: no binding

B43: TSHR Ile60 to Ala (receptor)
chain: not shown
notes: whole, on cells; as m1
Ka [1]: 5.1e+09 M⁻¹

B44: TSHR Arg255 to Asp (receptor)
chain: not shown
notes: whole, on cells; as m1; also called TSHR with Arg255 mutated to Asp; Arg255 Asp mutation
binding result [1]: no binding

B45: TSHR Arg109 to Asp (receptor)
chain: not shown
notes: whole, on cells; as m1
binding result [1]: no binding

B47: TSHR Lys183 to Ala (receptor)
chain: not shown
notes: whole, on cells; as m1
Ka [1]: 1.6e+10 M⁻¹

Results, then the binder that gave them:

Ka [1]: 3.7e+09 M⁻¹
B3: TSHR Glu107 to Ala (receptor)
chain: not shown
notes: whole, on cells; as m1

binding result [2]: no binding
B4: TSHR Asp232 to Ala and Trp258 to Ala (receptor)
chain: not shown
notes: whole, on cells; as m1

Ka [1]: 1.1e+09 M⁻¹
B5: TSHR Arg109 to Ala (receptor)
chain: not shown
notes: whole, on cells; as m1

Ka [3]: 2.7e+09 M⁻¹
Ka [1]: 2.4e+09 M⁻¹
B8: TSHR Glu61 to Ala (receptor)
chain: not shown
notes: whole, on cells; as m1; also called Glu61 mutated to Ala

Ka [1]: 2.2e+09 M⁻¹
B9: TSHR Lys129 to Ala (receptor)
chain: not shown
notes: whole, on cells; as m1

Ka [3]: 9e+08 M⁻¹
Ka [1]: 1e+09 M⁻¹
B10: TSHR Glu178 to Ala (receptor)
chain: not shown
notes: whole, on cells; as m1; also called Glu178 mutated to Ala

binding result [2]: no binding
B18: TSHR Trp258 to Ala and Tyr185 to Ala (receptor)
chain: not shown
notes: whole, on cells; as m1

binding result [1]: no binding
B25: TSHR Asp232 to Arg (receptor)
chain: not shown
notes: whole, on cells; as m1

binding result [3]: no binding
B26: TSHR Glu157 to Ala (receptor)
chain: not shown
notes: whole, on cells; as m1; also called Glu157 mutated to Ala

binding result [2]: no binding
B28: TSHR Glu157 to Ala and Asp203 to Ala (receptor)
chain: not shown
notes: whole, on cells; as m1

Ka [1]: 2.1e+09 M⁻¹
B32: TSHR Phe134 to Ala (receptor)
chain: not shown
notes: whole, on cells; as m1

binding result [1]: no binding
B37: TSHR Lys209 to Ala (receptor)
chain: not shown
notes: whole, on cells; as m1

Ka [3]: 3.4e+09 M⁻¹
Ka [1]: 5.5e+09 M⁻¹
B38: TSHR Asp276 to Ala (receptor)
chain: not shown
notes: whole, on cells; as m1; also called Asp276 mutated to Ala

binding result [1]: no binding
B46: TSHR Arg255 to Ala and Trp258 to Ala (receptor)
chain: not shown
notes: whole, on cells; as m1
